Results are given in words; binding and its absence hold for the method and conditions named. In cells and extracts the contact can be indirect. Some binding calls cover weakened binding; strength is not graded here. For some assays here: Tags and fused reporters may be left off the sequences shown.
Legend:
Assay in all cases: co-IP; HEK293T cells co-transfected with Flag- and HA-tagged plasmids; lysis in 50 mM Tris-HCl pH 7.5, 300 mM NaCl, 1% Triton-X, 5 mM EDTA, 10% glycerol; IP with anti-Flag antibody and Protein-G Sepharose, immunoblot with anti-HA and anti-Flag; in some panels cells treated with DMSO or ATP (5 mM) for 2 h; Fig. 6d-g shown as pairs of IPs whose antibodies the legend does not name
[1] = molecular target: T1, Flag-USP13(301–624) (human) (UniProt Q92995)
T1 sequence: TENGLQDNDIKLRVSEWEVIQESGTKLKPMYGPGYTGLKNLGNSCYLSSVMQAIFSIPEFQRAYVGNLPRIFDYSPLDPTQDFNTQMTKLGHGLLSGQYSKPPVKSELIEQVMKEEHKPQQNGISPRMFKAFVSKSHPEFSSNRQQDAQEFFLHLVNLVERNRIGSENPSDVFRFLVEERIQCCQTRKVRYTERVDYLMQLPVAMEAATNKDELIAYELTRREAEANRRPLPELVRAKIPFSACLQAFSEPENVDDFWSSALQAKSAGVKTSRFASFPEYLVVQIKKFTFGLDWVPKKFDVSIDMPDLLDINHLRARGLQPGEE

Amino acid sequences for entries named in this document (tags omitted).
UniProt Q96RD7: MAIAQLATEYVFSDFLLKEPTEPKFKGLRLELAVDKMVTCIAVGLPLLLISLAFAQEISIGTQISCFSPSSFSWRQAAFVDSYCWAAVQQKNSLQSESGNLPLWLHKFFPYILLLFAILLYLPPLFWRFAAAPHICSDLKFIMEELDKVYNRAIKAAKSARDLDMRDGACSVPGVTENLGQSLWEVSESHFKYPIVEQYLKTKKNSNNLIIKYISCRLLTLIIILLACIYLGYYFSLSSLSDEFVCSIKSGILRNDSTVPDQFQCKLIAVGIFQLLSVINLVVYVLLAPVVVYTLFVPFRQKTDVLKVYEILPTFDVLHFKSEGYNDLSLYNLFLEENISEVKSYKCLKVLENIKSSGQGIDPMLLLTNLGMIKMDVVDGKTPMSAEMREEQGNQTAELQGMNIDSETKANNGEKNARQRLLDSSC
UniProt P49023: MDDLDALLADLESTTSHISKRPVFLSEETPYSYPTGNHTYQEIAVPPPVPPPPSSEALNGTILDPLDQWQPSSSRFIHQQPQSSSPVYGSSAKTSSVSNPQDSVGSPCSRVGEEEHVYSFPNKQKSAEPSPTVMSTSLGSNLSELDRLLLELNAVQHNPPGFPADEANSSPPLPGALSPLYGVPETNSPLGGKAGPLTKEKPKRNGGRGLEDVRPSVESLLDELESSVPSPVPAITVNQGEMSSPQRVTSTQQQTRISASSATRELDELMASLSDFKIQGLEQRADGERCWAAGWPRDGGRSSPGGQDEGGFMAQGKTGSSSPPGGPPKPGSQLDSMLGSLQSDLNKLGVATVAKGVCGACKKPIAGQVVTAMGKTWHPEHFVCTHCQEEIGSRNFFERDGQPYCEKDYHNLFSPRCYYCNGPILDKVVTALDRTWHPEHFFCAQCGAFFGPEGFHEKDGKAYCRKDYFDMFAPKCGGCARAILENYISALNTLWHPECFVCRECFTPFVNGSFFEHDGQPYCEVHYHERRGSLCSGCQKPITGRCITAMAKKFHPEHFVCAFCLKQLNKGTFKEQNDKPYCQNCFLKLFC

[2] = molecular target: Flag-Pannexin-1 (UniProt Q96RD7)
[3] = molecular target: T2, Flag-P2X7R(34–595) (UniProt Q99572)
T2 sequence: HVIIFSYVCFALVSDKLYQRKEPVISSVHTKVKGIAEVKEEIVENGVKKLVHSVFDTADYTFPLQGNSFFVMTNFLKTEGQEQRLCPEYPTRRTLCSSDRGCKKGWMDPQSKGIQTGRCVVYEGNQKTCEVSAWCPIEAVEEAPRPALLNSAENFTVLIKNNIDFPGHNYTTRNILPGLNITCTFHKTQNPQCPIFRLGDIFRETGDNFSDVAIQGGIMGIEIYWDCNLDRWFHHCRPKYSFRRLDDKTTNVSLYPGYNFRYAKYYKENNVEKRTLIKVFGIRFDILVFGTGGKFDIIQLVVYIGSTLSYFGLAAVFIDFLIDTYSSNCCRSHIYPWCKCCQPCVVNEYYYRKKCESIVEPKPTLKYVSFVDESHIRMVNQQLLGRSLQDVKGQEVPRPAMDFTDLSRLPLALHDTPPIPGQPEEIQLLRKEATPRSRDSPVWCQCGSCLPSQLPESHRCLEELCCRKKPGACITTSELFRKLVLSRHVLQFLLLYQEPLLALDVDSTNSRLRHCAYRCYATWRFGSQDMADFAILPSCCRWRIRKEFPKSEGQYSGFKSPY

[4] = molecular target: T3, Flag-P2X7R(31–595) (UniProt Q99572)
T3 sequence: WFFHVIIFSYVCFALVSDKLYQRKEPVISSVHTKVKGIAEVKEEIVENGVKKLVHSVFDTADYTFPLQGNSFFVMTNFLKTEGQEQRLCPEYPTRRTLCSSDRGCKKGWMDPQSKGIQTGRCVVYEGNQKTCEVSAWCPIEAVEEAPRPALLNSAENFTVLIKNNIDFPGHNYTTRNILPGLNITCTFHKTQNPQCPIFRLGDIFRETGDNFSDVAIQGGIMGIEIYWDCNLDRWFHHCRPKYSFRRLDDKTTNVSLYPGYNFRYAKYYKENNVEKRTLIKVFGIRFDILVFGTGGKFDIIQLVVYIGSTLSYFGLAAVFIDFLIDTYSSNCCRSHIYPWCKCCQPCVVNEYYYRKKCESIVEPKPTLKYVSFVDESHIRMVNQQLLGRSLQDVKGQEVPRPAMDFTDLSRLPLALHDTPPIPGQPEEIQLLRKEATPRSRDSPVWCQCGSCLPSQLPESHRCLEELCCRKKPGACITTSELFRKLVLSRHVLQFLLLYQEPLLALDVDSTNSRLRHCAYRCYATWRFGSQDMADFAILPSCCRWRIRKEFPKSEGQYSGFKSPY

[5] = molecular target: T4, Flag-P2X7R(32–595) (UniProt Q99572)
T4 sequence: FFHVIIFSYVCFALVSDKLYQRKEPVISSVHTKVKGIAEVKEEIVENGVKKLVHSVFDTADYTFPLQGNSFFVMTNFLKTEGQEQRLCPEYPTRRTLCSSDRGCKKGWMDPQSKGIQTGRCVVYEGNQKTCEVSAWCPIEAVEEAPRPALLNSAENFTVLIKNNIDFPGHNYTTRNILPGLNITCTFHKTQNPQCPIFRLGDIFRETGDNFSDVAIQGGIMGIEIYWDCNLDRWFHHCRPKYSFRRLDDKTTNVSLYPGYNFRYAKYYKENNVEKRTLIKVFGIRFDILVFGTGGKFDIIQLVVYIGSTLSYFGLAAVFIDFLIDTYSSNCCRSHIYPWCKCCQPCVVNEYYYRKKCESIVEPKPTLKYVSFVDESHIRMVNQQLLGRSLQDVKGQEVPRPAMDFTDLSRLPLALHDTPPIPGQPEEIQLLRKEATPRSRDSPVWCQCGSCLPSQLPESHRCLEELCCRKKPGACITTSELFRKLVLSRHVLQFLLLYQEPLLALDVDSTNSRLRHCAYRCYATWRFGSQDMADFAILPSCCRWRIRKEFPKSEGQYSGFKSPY

Substance: HA-Paxillin (from UniProt P49023 1-591)
- binding [1]: no binding
- binding [2]: binds
- binding [3]: no binding
- binding [4]: no binding
- binding [5]: no binding

Source: article PMC7694937
